{
  "source": "the antibiotic and cytotoxicity screens of Wong et al. (2023)",
  "key": {"HSkMC": {"system": "HSkMC", "assay": "cytotoxicity call (relative viability < 0.9)", "conditions": "10 µM"}, "HepG2": {"system": "HepG2", "assay": "cytotoxicity call (relative viability < 0.9)", "conditions": "10 µM"}, "S. aureus RN4220": {"system": "S. aureus RN4220", "assay": "growth inhibition call (relative growth <= 0.2)", "conditions": "50 µM"}},
  "note": "This is one part of the list.",
  "data": [
    {"smiles": "C[C@@H]1CN([C@H](C)CO)C(=O)Cc2cc(N(C)C)ccc2O[C@H]1CN(C)S(=O)(=O)c1cn(C)cn1", "values": [
      {"measurement": "cytotoxicity call", "setting": "HSkMC", "result": "inactive"},
      {"measurement": "cytotoxicity call", "setting": "HepG2", "result": "inactive"},
      {"measurement": "growth inhibition call", "setting": "S. aureus RN4220", "result": "inactive"}
    ]},
    {"smiles": "C[C@H]1CN([C@@H](C)CO)C(=O)c2cc(-c3ccncc3)cnc2O[C@H]1CN(C)S(=O)(=O)c1ccccc1", "values": [
      {"measurement": "cytotoxicity call", "setting": "HSkMC", "result": "inactive"},
      {"measurement": "cytotoxicity call", "setting": "HepG2", "result": "inactive"},
      {"measurement": "growth inhibition call", "setting": "S. aureus RN4220", "result": "inactive"}
    ]},
    {"smiles": "CCSc1nnc2c(=O)[nH]c(=O)[nH]c2n1", "values": [
      {"measurement": "cytotoxicity call", "setting": "HSkMC", "result": "inactive"},
      {"measurement": "cytotoxicity call", "setting": "HepG2", "result": "inactive"},
      {"measurement": "growth inhibition call", "setting": "S. aureus RN4220", "result": "inactive"}
    ]},
    {"smiles": "CC(C)NC(=O)N(C)C[C@@H]1OCCCC[C@@H](C)Oc2ccc(NS(C)(=O)=O)cc2C(=O)N([C@@H](C)CO)C[C@H]1C", "values": [
      {"measurement": "cytotoxicity call", "setting": "HSkMC", "result": "inactive"},
      {"measurement": "cytotoxicity call", "setting": "HepG2", "result": "inactive"},
      {"measurement": "growth inhibition call", "setting": "S. aureus RN4220", "result": "inactive"}
    ]},
    {"smiles": "CO[C@@H]1CN(C)C(=O)c2ccc(NS(=O)(=O)c3ccccc3)cc2OC[C@@H](C)N(C(=O)NC(C)C)C[C@@H]1C", "values": [
      {"measurement": "cytotoxicity call", "setting": "HSkMC", "result": "inactive"},
      {"measurement": "cytotoxicity call", "setting": "HepG2", "result": "inactive"},
      {"measurement": "growth inhibition call", "setting": "S. aureus RN4220", "result": "inactive"}
    ]},
    {"smiles": "O=C(C[C@@H]1C[C@@H]2c3cc(NS(=O)(=O)c4ccc(F)cc4)ccc3O[C@@H]2[C@@H](CO)O1)N1CCCCC1", "values": [
      {"measurement": "cytotoxicity call", "setting": "HSkMC", "result": "inactive"},
      {"measurement": "cytotoxicity call", "setting": "HepG2", "result": "inactive"},
      {"measurement": "growth inhibition call", "setting": "S. aureus RN4220", "result": "inactive"}
    ]},
    {"smiles": "C=CCCCCCCCCC(=O)[O-].C=CCCCCCCCCC(=O)[O-].[Zn+2]", "values": [
      {"measurement": "cytotoxicity call", "setting": "HSkMC", "result": "inactive"},
      {"measurement": "cytotoxicity call", "setting": "HepG2", "result": "inactive"},
      {"measurement": "growth inhibition call", "setting": "S. aureus RN4220", "result": "inactive"}
    ]},
    {"smiles": "C=CC1(C)CC(=O)C2(O)C(C)(O1)C(OC(C)=O)C(O)C1C(C)(C)CCC(O)C12C", "note": "(stereo not drawn)", "values": [
      {"measurement": "cytotoxicity call", "setting": "HSkMC", "result": "inactive"},
      {"measurement": "cytotoxicity call", "setting": "HepG2", "result": "inactive"},
      {"measurement": "growth inhibition call", "setting": "S. aureus RN4220", "result": "inactive"}
    ]},
    {"smiles": "COc1ccc(NC(=O)N(C)C[C@@H]2Oc3c(NC(=O)C4CCOCC4)cccc3C(=O)N([C@@H](C)CO)C[C@H]2C)cc1", "values": [
      {"measurement": "cytotoxicity call", "setting": "HSkMC", "result": "inactive"},
      {"measurement": "cytotoxicity call", "setting": "HepG2", "result": "inactive"},
      {"measurement": "growth inhibition call", "setting": "S. aureus RN4220", "result": "inactive"}
    ]},
    {"smiles": "Cc1noc(C)c1NC(=O)Nc1ccc2c(c1)C(=O)N([C@H](C)CO)C[C@H](C)[C@@H](CN(C)C(=O)Nc1cccc3ccccc13)O2", "values": [
      {"measurement": "cytotoxicity call", "setting": "HSkMC", "result": "inactive"},
      {"measurement": "cytotoxicity call", "setting": "HepG2", "result": "inactive"},
      {"measurement": "growth inhibition call", "setting": "S. aureus RN4220", "result": "inactive"}
    ]},
    {"smiles": "O=C(O)[C@@H]1C[C@H](C(F)(F)F)CN1", "values": [
      {"measurement": "cytotoxicity call", "setting": "HSkMC", "result": "inactive"},
      {"measurement": "cytotoxicity call", "setting": "HepG2", "result": "inactive"},
      {"measurement": "growth inhibition call", "setting": "S. aureus RN4220", "result": "inactive"}
    ]},
    {"smiles": "C[C@@H]1CN([C@@H](C)CO)C(=O)c2cc(NC(=O)Nc3cccc4ccccc34)ccc2O[C@@H]1CN(C)Cc1ccc(C(F)(F)F)cc1", "values": [
      {"measurement": "cytotoxicity call", "setting": "HSkMC", "result": "inactive"},
      {"measurement": "cytotoxicity call", "setting": "HepG2", "result": "active"},
      {"measurement": "growth inhibition call", "setting": "S. aureus RN4220", "result": "inactive"}
    ]},
    {"smiles": "Cc1cc(C)c2c(c1)[C@@H](N(Cc1cc(C(F)(F)F)cc(C(F)(F)F)c1)c1nnn(C)n1)CCCN2C[C@H]1CC[C@H](C(=O)O)CC1", "values": [
      {"measurement": "cytotoxicity call", "setting": "HSkMC", "result": "active"},
      {"measurement": "cytotoxicity call", "setting": "HepG2", "result": "active"},
      {"measurement": "growth inhibition call", "setting": "S. aureus RN4220", "result": "inactive"}
    ]},
    {"smiles": "C[C@@H]1CN([C@H](C)CO)C(=O)c2cc(NS(C)(=O)=O)ccc2O[C@H]1CN(C)C(=O)Nc1ccc(C(F)(F)F)cc1", "values": [
      {"measurement": "cytotoxicity call", "setting": "HSkMC", "result": "inactive"},
      {"measurement": "cytotoxicity call", "setting": "HepG2", "result": "inactive"},
      {"measurement": "growth inhibition call", "setting": "S. aureus RN4220", "result": "inactive"}
    ]},
    {"smiles": "C[N+](C)(C)C[C@H](O)CC(=O)O", "values": [
      {"measurement": "cytotoxicity call", "setting": "HSkMC", "result": "inactive"},
      {"measurement": "cytotoxicity call", "setting": "HepG2", "result": "inactive"},
      {"measurement": "growth inhibition call", "setting": "S. aureus RN4220", "result": "inactive"}
    ]},
    {"smiles": "CC(C)Nc1ncccn1", "values": [
      {"measurement": "cytotoxicity call", "setting": "HSkMC", "result": "inactive"},
      {"measurement": "cytotoxicity call", "setting": "HepG2", "result": "inactive"},
      {"measurement": "growth inhibition call", "setting": "S. aureus RN4220", "result": "inactive"}
    ]},
    {"smiles": "O=C(C[C@@H]1CC[C@@H]2[C@H](COC[C@H](O)CN2C(=O)Nc2cccc(Cl)c2)O1)NCc1ccccc1F", "values": [
      {"measurement": "cytotoxicity call", "setting": "HSkMC", "result": "inactive"},
      {"measurement": "cytotoxicity call", "setting": "HepG2", "result": "inactive"},
      {"measurement": "growth inhibition call", "setting": "S. aureus RN4220", "result": "inactive"}
    ]},
    {"smiles": "Cc1noc(C)c1NC(=O)Nc1cccc2c1O[C@H](CN(C)Cc1ccc(-c3ccccc3)cc1)[C@H](C)CN([C@@H](C)CO)C2=O", "values": [
      {"measurement": "cytotoxicity call", "setting": "HSkMC", "result": "inactive"},
      {"measurement": "cytotoxicity call", "setting": "HepG2", "result": "inactive"},
      {"measurement": "growth inhibition call", "setting": "S. aureus RN4220", "result": "inactive"}
    ]},
    {"smiles": "CC(C)NC(=O)N(C)C[C@@H]1OCc2cn(nn2)CCCC(=O)N([C@@H](C)CO)C[C@@H]1C", "values": [
      {"measurement": "cytotoxicity call", "setting": "HSkMC", "result": "inactive"},
      {"measurement": "cytotoxicity call", "setting": "HepG2", "result": "inactive"},
      {"measurement": "growth inhibition call", "setting": "S. aureus RN4220", "result": "inactive"}
    ]},
    {"smiles": "C[C@H]1CN([C@@H](C)CO)C(=O)c2c(c3ccccc3n2C)-c2ccccc2CO[C@@H]1CN(C)C(=O)c1cc(Cl)cc(Cl)c1", "values": [
      {"measurement": "cytotoxicity call", "setting": "HSkMC", "result": "inactive"},
      {"measurement": "cytotoxicity call", "setting": "HepG2", "result": "inactive"},
      {"measurement": "growth inhibition call", "setting": "S. aureus RN4220", "result": "inactive"}
    ]},
    {"smiles": "CCO[C@@H]1OC(C(=O)N2CCOCC2)=C[C@H](C2CC2)[C@H]1CCCOC(=O)NCCCCCC(=O)NO", "values": [
      {"measurement": "cytotoxicity call", "setting": "HSkMC (human skeletal muscle cells)", "result": "inactive"},
      {"measurement": "cytotoxicity call", "setting": "HepG2", "result": "inactive"},
      {"measurement": "growth inhibition call", "setting": "S. aureus RN4220", "result": "inactive"}
    ]}
  ]
}
